PubChem BioAssay AID686970 (National Center for Advancing Translational Sciences (NCATS), 2013)
Hit rate of the full screen: of about 360,000 compounds, about 6,000 (1.7%) were called active. Inconclusive results, whose numbers are uncertain, are shown with a selection of clear calls. Calls come from the whole dose curve; as a rule, active = well fitted cell-killing curve with a large enough effect; inconclusive = small, poorly fitted or top-dose-only effect, or effect the other way; inactive = flat fitted curve, though single readings scatter. No potency is given beside an inconclusive call; the fits are too rough.

test: qHTS for induction of synthetic lethality in tumor cells producing 2HG: qHTS for the HT-1080-NT fibrosarcoma cell line; conditions: HT-1080-NT fibrosarcoma viability, CellTiter-Glo ATP luminescence, 48 h; series mostly up to 46.1 µM;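 note: NT is the 2HG producing partner of a matched IDH1 knockdown line; nearly all actives have a fitted effect of over 55% in size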
Summary of the method: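 Compounds were tested in concentration-response format on HT-1080-NT cells for 48 hours at 37 degrees C. Cell viability came from CellTiter-Glo luminescence; curves were classified by r2, response magnitude and activity.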
Potency is the fitted concentration of half-maximal effect; tags give direction and shape of the fitted curve.

SMILES	Potency
CCCC(C(=O)NC(C)(C)C)N(CC1CCCO1)C(=O)CNS(=O)(=O)c1ccc(F)cc1 (stereo not drawn)	inactive
CN(C)CCCNc1oc(-c2cccc(Cl)c2)nc1C#N	inconclusive [cytotoxic, partial curve]
COc1ccc(-c2ccc(C(=O)NC3CCCCC3)c3occc23)c(C)c1	inconclusive [cytotoxic, single point]
c1ccc(COc2ccc(-c3cc4nc(NCCCn5ccnc5)ccn4n3)cc2)cc1	inconclusive [cytotoxic, single point]
CCc1nc(N2CCN(C(=S)NCCCOC)CC2)c2c3c(sc2n1)CCCC3	inconclusive [cytotoxic, single point]
O=C(NN=Cc1c(O)ccc2ccccc12)C1CC1	inconclusive [cytotoxic, partial curve]
COc1cccc(NC(=S)NCc2ccccc2)c1	inactive
O=C(NCCNC(=O)c1cc(F)cc(F)c1)c1cc(F)cc(F)c1	inconclusive [rising, single point]
CC(O)[C@H]1CC[C@H]2[C@@H]3CC[C@H]4C[C@H](O)CC[C@]4(C)[C@H]3[C@H](O)C[C@]12C (stereo partly drawn)	inactive
CCN(CC)c1nc(SCC(=O)O)nc(N(CC)CC)n1	inconclusive [cytotoxic, partial curve]
Cc1nccn1CCCN1C(=O)OC2(CCCCC2)C1(C)O (stereo not drawn)	inactive
COc1ccc2[nH]c(=O)c(CN(C(C)=O)c3ccc(C)c(C)c3)cc2c1	inactive
CCc1nc2c(OCCOc3ccccc3)cccn2c1N(C)C(=O)c1ccc(OC)cc1	inactive
O=C(Nc1ccc(O)cc1)c1ccc(NC(=O)c2ccco2)cc1	inconclusive [cytotoxic, single point]
CCC(CO)Oc1cc(NCc2ccc(C(C)(C)C)cc2)c2ncn(C(C)C)c2c1 (stereo not drawn)	inconclusive [cytotoxic, single point]
CC(=O)/C=C/c1ccccc1Oc1c(F)c(F)nc(F)c1F	inconclusive [cytotoxic, single point]
Cc1ccc(C)c(S(=O)(=O)C(C#N)c2nc3ccccc3nc2N2CC(C)OC(C)C2)c1 (stereo not drawn)	inconclusive [cytotoxic, partial curve]
COc1ccc(NC(=O)Cn2nnc(-c3ccccc3)c2COc2ccc3ccccc3c2)cn1	inconclusive [cytotoxic, single point]
O=C(NCc1ccc2c(c1)OCO2)C1CC(=O)N(CCc2ccc(F)cc2)C1 (stereo not drawn)	inactive
COc1ccc(Cl)cc1C(=O)Nc1cc(=O)n(C)c(=O)n1C	inactive
CCOc1ccc(NC(=S)N(CCCN2CCCC2)Cc2cccn2Cc2ccc(Cl)cc2)cc1	inconclusive [cytotoxic, single point]
O=C(c1ccccc1)c1cc(Cl)ccc1N1C(=O)C=CC1=O	active: 18.4 µM
Cc1ccc(-c2cc3ccccc3nc2N)cc1	inconclusive [rising, single point]
COc1ccc(-c2nc3c4ccccc4[nH]c(=O)n3n2)cc1	inconclusive [cytotoxic, single point]
O=C(CNC(=O)C(c1ccccc1)c1ccccc1)N/N=C/c1ccc(O)cc1O	inconclusive [cytotoxic, partial curve]

SMILES	Potency
COc1ccc(-n2nnnc2C(c2ccnc3ccccc23)N2CCN(C/C=C/c3ccccc3)CC2)cc1 (stereo not drawn)	inconclusive [cytotoxic, single point]
C1=C(c2ccccc2)Nc2ncnn2C1c1ccccc1 (stereo not drawn)	inactive
CCc1ccc(C(=O)OCC(=O)Nc2c(C)n(C)n(-c3ccccc3)c2=O)cc1	inactive
CC(=O)NO	inactive
COc1ccccc1C1CC(=O)Nc2cc3c(cc21)OCCO3 (stereo not drawn)	active: 2.24 µM
COc1ccc(-c2csc(NC(=O)CSc3nc4ccccc4c(=O)[nH]3)n2)cc1	active: 18.4 µM
CN(C)CC/C=C1\c2ccccc2CSc2ccccc21	inconclusive [cytotoxic, single point]
COCCN(CC1CCCN(C2Cc3ccccc3C2)C1)C(=O)CCC(N)=O (stereo not drawn)	inactive
c1cc(N2CCCCC2)nc(N2CCCCC2)n1	inactive
CNC(C)C(=O)NC(C(=O)NC(C)C(=O)NNc1ccccc1)C(C)C (stereo not drawn)	inconclusive [cytotoxic, partial curve]
Cc1ccc(S(=O)(=O)N(C(=O)c2ccncc2)c2ccc(OC(=O)c3ccncc3)c3ccccc23)c(C)c1	inconclusive [cytotoxic, single point]
Cc1cccc(N2CCN(C(=O)c3cccc(S(=O)(=O)N4CCCCC4)c3)CC2)c1C	inconclusive [cytotoxic, single point]
COc1ccc(NC(=O)C2CCN(c3nc(C)nc4c3CCC4)CC2)cc1	inconclusive [cytotoxic, partial curve]
O=C(N/N=C/c1cccc(O)c1)c1cc(-c2ccc3c(c2)OCO3)n[nH]1	inconclusive [cytotoxic, partial curve]
COc1ccc(NC(=O)C2CCCN(S(=O)(=O)c3ccc4c(c3)CCCN4C(C)=O)C2)cc1Cl (stereo not drawn)	inactive
CN(C)c1ccnc2sc3c(=O)n(Cc4ccccc4)cnc3c12	inconclusive [cytotoxic, single point]
CCOC(=O)N1CCN(C(=O)/C(=C/c2ccc(OC)c(OC)c2)NC(=O)c2ccccc2)CC1	inactive
CCCSc1nsc(NC(=O)Nc2ccc(F)cc2F)n1	inconclusive [cytotoxic, single point]
Cc1cc(C2C(C#N)=C(N)Oc3n[nH]c(C)c32)c(C)s1 (stereo not drawn)	inconclusive [cytotoxic, single point]
Clc1ccc(CN=C(Nc2ccccc2)NC2CCCCC2)cc1	active: 20.6 µM
CCOc1ccccc1N(CC(=O)N1CCOCC1)S(=O)(=O)c1ccc(SC)cc1	inactive
CCOc1ccccc1CN1CCN(Cc2cc(=O)c3ccccc3[nH]2)CC1CCO (stereo not drawn)	inactive
COc1ccc(C2=NN(c3ccc(C=O)cc3)C(c3ccccc3)C2)cc1 (stereo not drawn)	inconclusive [cytotoxic, single point]
CN(C)CCN(Cc1ccco1)C(=O)c1oc2ccccc2c1NC(=O)COc1ccccc1	inconclusive [cytotoxic, single point]
COc1cccc(/C=N/NC(=O)c2cc3c(OC)cccc3[nH]2)c1O	inconclusive [cytotoxic, full curve]

SMILES	Potency
Cc1ccc(-n2cccn2)cc1	inactive
O=C(CSc1nnc(-c2cccnc2)s1)Nc1ccnc2ccccc12	inactive
Cc1ccc(C(=O)N2C(CC(=O)Nc3ccc(Cl)cc3)C(=O)NC3CCCCC32)cc1 (stereo not drawn)	active: 5.8 µM
O=C(O)c1ccccc1C(=O)Nc1c(-c2ccccc2)nc2ccccn12	inconclusive [cytotoxic, single point]
CCOC(=O)c1ccc(NC(=O)COc2ccc(CNC3CCCCC3)cc2OC)cc1	active: 23.1 µM
O=C(CSc1nc(-c2ccccc2)cs1)Nc1nccs1	inconclusive [cytotoxic, single point]
CCCCn1c(NC(=S)Nc2ccccc2)nc2ccccc21	active: 18.4 µM
Cc1oc(-c2cccc3ccccc23)nc1CN1CCN(c2ncnc3ccccc23)CC1	inconclusive [cytotoxic, partial curve]
O=C(Nc1cccnc1)c1cccnc1	inconclusive [cytotoxic, single point]
CCc1[nH]c(=O)[nH]c1C(C)S(=O)(=O)c1ccc(C)cc1 (stereo not drawn)	inconclusive [cytotoxic, single point]
CN(Cc1ccccc1)Cc1cc(=O)oc2ccccc12	inactive
COC(=O)c1ccc(C(=O)NC2CCCc3c2cnn3-c2ccccc2F)nc1 (stereo not drawn)	inconclusive [cytotoxic, full curve]
Nc1c2c(nc3sc4c(c13)CCCC4)-c1ccccc1CC2	inconclusive [cytotoxic, single point]
C/C(=N/NC(=O)c1ccc(-c2ccccc2)cc1)c1cc(O)cc(O)c1	inconclusive [cytotoxic, full curve, poor fit]
Cc1ccc(C(=O)Nc2nc(C)c(C(=O)Nc3ccc4c(c3)CCC4)s2)cc1	active: 2.31 µM
Cc1ccc(NC(=O)c2cc(-c3ccc(C)o3)nc3ccccc23)cc1	inconclusive [cytotoxic, single point]
O=c1[nH]c2ccc(Cl)cc2c(-c2ccccc2)c1CN1CCOCC1	inconclusive [cytotoxic, single point]
CCCCn1cnc2c(SCc3ccc(Br)cc3)nc(N)nc21	active: 14.6 µM
COc1ccc(OC)c(NC(=O)Nc2nc(C(N)CCc3ccccc3)cs2)c1 (stereo not drawn)	inconclusive [cytotoxic, single point]
Cc1ccccc1N=CC1=C(O)c2ccccc2C1=O	inconclusive [cytotoxic, single point]
OCc1ccc(-c2cncc3nccn23)cc1	inconclusive [rising, partial curve]
O=C(N/N=C/c1cccnc1)c1cc(-c2ccccc2OCc2ccccc2)n[nH]1	inconclusive [cytotoxic, single point]
Cc1ccc(CC(=O)N2CCN(c3cccc(C(F)(F)F)c3)CC2)cc1	inactive
